# Test results as given in PubChem BioAssay AID652104 (National Center for Advancing Translational Sciences (NCATS), 2013).
# The whole screen tested about 410,000 compounds, of which about 7,200 (1.8%) were called active. The shares of active, inactive and inconclusive entries below differ from those in the screen. The call rests on the fitted dose curve; in most records, active means well fitted activation curve with a large enough effect; inconclusive means small, poorly fitted or top-dose-only effect, or another doubt; inactive means no such curve, though single readings can be large or run the other way. Potencies of inconclusive entries are left out as doubtful fits.
# Experiment: qHTS of TDP-43 Inhibitors; further: nearly all actives have a fitted effect of over 50% in size; on growth rescue (activation): % of control where 0% means no effect
# Conditions: TDP-43 expressing yeast growth rescue, BacTiter-Glo, 24 h; growth rescue (activation): at 46.1 µM (top of the series) unless noted
# Procedure, shortened: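 Yeast cells expressing TDP-43 under galactose induction are exposed to compounds for 24 hr at 30 deg C. BacTiter-Glo luminescence measures growth, so protective compounds score as activators.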
# Potency means the concentration at half of the fitted maximal effect; tags describe the fitted curve by direction and shape.
SMILES,Potency,growth rescue (activation)
Cc1cccc(NC(=S)NCc2ccc(F)cc2)c1C,"inconclusive [activator, single point]",–
CCOC(=O)c1ccccc1NC(=O)COC(=O)c1ccc(OCC(=O)N2CCOCC2)c(OCC)c1,"inconclusive [activator, full curve, poor fit]",–
Cc1onc(C(=O)N2CCC(Cc3ccccc3)CC2)c1[N+](=O)[O-],"inconclusive [activator, single point]",–
CCC1(c2ccc(Cl)cc2)NC(=S)N(c2ccc(C)cc2)N1 (stereo unspecified),"inconclusive [activator, partial curve]",–
COc1ccc([C@H]2Cc3cccc(O)c3C(=O)O2)cc1O,active: 11.2 µM,–
Cc1ccc(NC(=O)CN(C)S(=O)(=O)c2cccc3cccnc23)cc1C,"inconclusive [activator, partial curve]",–
Cc1ccc(Sc2ccc(/C=N/O)cc2[N+](=O)[O-])cc1,"inconclusive [activator, full curve, poor fit]",–
CC1=C(c2ccc(C)c(C)c2)S(=O)(=O)N(Cc2ccc(C(=O)NCc3ccc(C)cc3)cc2)C1=O,inactive,–
COc1ccc(Cc2nc3c4cnn(-c5ccccc5Br)c4ncn3n2)cc1,"inconclusive [activator, partial curve, poor fit]",–
Cc1cccc(OCC(=O)NCc2ccc3c(c2)CCN3C(=O)c2ccccc2)c1,active: 25.1 µM,–
CCN(CC)C(=O)CSc1ncnc2sc(C)c(C)c12,"inconclusive [activator, full curve]",–
COC(=O)C1=CN(c2c(C)cc(C)cc2C)C(N)=C(C#N)C1c1ccccc1 (stereo unspecified),"inconclusive [activator, single point]",–
COc1cc(-c2nc3ccccn3c2/N=C/c2ccccc2)ccc1O,inactive,–
NC(=S)NN=C1c2cc(Cl)ccc2-c2c1cc(Cl)cc2[N+](=O)[O-],"inconclusive [activator, single point]",–
CCCCCc1ccc(-c2ccc(OCC)cc2)nc1,active: 12.6 µM,–
CC(=O)NC(c1cccc(F)c1)c1nc(-c2ccc(C)c(C)c2)cs1 (stereo unspecified),"inconclusive [activator, single point]",–
COCCn1c(SCc2ccc(F)cc2)nc2ccccc2c1=O,active: 17.8 µM,–
O=C(CCC(=O)c1cccs1)NCc1cccc(Cl)c1,"inconclusive [activator, partial curve]",–
O=C(COc1c(Br)cc(Br)c2cccnc12)N1CCc2ccccc2C1,"inconclusive [activator, single point]",–
CCCCn1c(N)c(N(CC)C(=O)c2ccc(C)cc2)c(=O)[nH]c1=O,"inconclusive [activator, partial curve]",–
Cc1ccc(CN2CCN(CC(=O)NC(C)CCc3ccccc3)C2=O)cc1 (stereo unspecified),"inconclusive [activator, full curve, poor fit]",–
CCOc1ccc2oc(=O)cc(CN3CCN(C(=O)c4ccc(Cl)cc4)CC3)c2c1,inactive,–
CCCCc1nn2c(=O)cc(COC(=O)CNC(=O)c3ccccc3C)nc2s1,inactive,–
Cc1ccc2nc(Nc3ccc(Br)cc3)nc(-c3ccccc3)c2c1,inactive,–

SMILES,Potency,growth rescue (activation)
O=C(COC(=O)CNC(=O)c1ccccc1)NCCNC(=O)COC(=O)CNC(=O)c1ccccc1,"inconclusive [activator, full curve, poor fit]",–
O=C(CNC(=O)c1ccc(Cl)cc1Cl)OCn1nnc2ccccc2c1=O,"inconclusive [activator, partial curve]",–
COc1cc(-c2nc3cnccn3c2Nc2ccc3c(c2)OCCO3)ccc1O,"inconclusive [activator, partial curve, poor fit]",–
Cc1cc(Nc2cccc(F)c2)n2nc(-c3ccco3)nc2n1,"inconclusive [activator, partial curve]",–
CCC(=O)N1CCc2cc(CNS(=O)(=O)c3ccc(Cl)s3)ccc21,active: 12.6 µM,–
CCn1c(C(=O)N2CCCC(C(=O)NCCc3ccc(C)cc3)C2)cc2sccc21 (stereo unspecified),"inconclusive [activator, single point]",–
COc1ccc(Cc2nc(C(=O)Nc3ccccc3)cs2)cc1,"inconclusive [activator, partial curve]",–
COc1cc(NC(=O)c2ccc(Br)o2)ccc1NC(=O)c1ccccc1Cl,"inconclusive [activator, single point]",–
NC(=S)N/N=C/c1coc2cc(Br)ccc2c1=O,"inconclusive [activator, single point]",–
O=C1NCCc2c1[nH]c1ccccc21,inactive,–
CC(=O)c1ccc(Sc2ccccn2)c([N+](=O)[O-])c1,"inconclusive [activator, single point]",–
O=C(Nc1ccc2ccccc2n1)c1ccc(Cl)cc1,"inconclusive [activator, partial curve]",–
O=S(=O)(c1ccc(Cl)c(Cl)c1)c1snnc1-c1ccccc1,active: 12.6 µM,–
CC1(c2nc3ccccc3[nH]2)CCC2=Nc3ccccc3CN21 (stereo unspecified),inactive,–
Cc1ccc(C(=O)Nc2ccc3c(c2)OCO3)cc1S(=O)(=O)N1CCCCC1,"inconclusive [activator, single point]",–
CCOC(=O)C1=CCN(S(=O)(=O)c2cccc(Cl)c2)C1c1ccccc1 (stereo unspecified),"inconclusive [activator, partial curve]",–
CCCCNC(=S)NNC(=O)c1cc(C2CC2)nc2ccccc12,"inconclusive [activator, full curve]",–
COc1ccc(OC)c(-c2csc(NC(=O)Cc3ccccc3F)n2)c1,"inconclusive [activator, single point]",–
CCOC(=O)c1nc(Nc2ccccc2C)c2ccccc2n1,"inconclusive [activator, single point]",–
Cc1ccc(Cc2c(-c3cccc(Cl)c3)nc3ccc(Cl)cn23)cc1,active: 15.8 µM,–
CCCNC(=O)c1c(N)n(-c2cccc(OC)c2)c2nc3ccccc3nc12,"inconclusive [activator, single point]",–
COc1cccc(CNC(=O)CCc2nc(-c3ccc(C)cc3)no2)c1,"inconclusive [activator, partial curve]",–
O=C(CSc1ccccc1)Nc1ccc2c(c1)OCCO2,"inconclusive [activator, single point]",–
COc1ccc(CNC(=O)Cc2coc3ccc(C(C)C)cc23)cc1,"inconclusive [activator, partial curve]",–

SMILES,Potency,growth rescue (activation)
Cc1ccccc1C(=O)NNC(=S)NC(=O)c1ccc(Cl)cc1Cl,active: 10 µM,–
Cc1cc(C)c(S(=O)(=O)NCC(c2ccc(N(C)C)cc2)N2CCc3ccccc32)c(C)c1 (stereo unspecified),–,inactive: -11.7% [at 9.22 µM]
Cc1cc(Nc2cc(Cl)ccc2C)n2nc(Cc3ccccc3)nc2n1,active: 35.5 µM,–
C/C(CC(C)(C)c1ccccc1)=N\NS(=O)(=O)c1ccccc1,"inconclusive [activator, full curve, poor fit]",–
Cn1c(=O)cc(-c2ccccc2)c2ccccc21,"inconclusive [activator, single point]",–
COc1ccc2nc(N(Cc3cccnc3)C(=O)c3ccco3)sc2c1,"inconclusive [activator, partial curve, poor fit]",–
O=C(Nc1ccc(-c2nc3ccccc3s2)cc1)C1=COCCO1,inactive,–
O=S(=O)(c1cc(Cl)ccc1Cl)N1CCCC1,inactive,–
CC(C1=C(CCN(C)C)Cc2ccccc21)c1ccccn1 (stereo unspecified),inactive,–
Clc1ccc(CN2CCCCCC2)cc1,inactive,–
Cc1ccc2nsnc2c1NC(=O)c1ccc([N+](=O)[O-])o1,"inconclusive [activator, partial curve]",–
COc1cccc(/C=N/NC(=S)NCCc2ccccc2)c1,"inconclusive [activator, single point]",–
CC(C)c1ccc(NC(=S)NCc2cccs2)cc1,"inconclusive [activator, single point]",–
Cc1coc2c1c(C)cc1oc(=O)c(CC(=O)NCc3ccc(Cl)cc3)c(C)c12,inactive,–
CCc1nc(Nc2cccc(O)c2)c2oc3ccccc3c2n1,inactive,–
O=C(c1ccccc1F)N1CCN(c2ccc([N+](=O)[O-])c3cccnc23)CC1,"inconclusive [activator, single point]",–
CCN(CC)C(=O)c1cccc(C)c1,–,inconclusive: 30.3% [activator]
O=C(COc1ccc(F)cc1)Nc1nnc(-c2ccncc2)s1,inactive,–
CC1CCC(NC(=O)c2nn(C)c(=O)c3ccccc23)CC1 (stereo unspecified),"inconclusive [activator, partial curve]",–
O=C(O)c1ccc(OS(=O)(=O)c2cccc(C(F)(F)F)c2)cc1,"inconclusive [activator, single point]",–
Cc1cc(SCC(=O)OCC(=O)NCc2ccc3c(c2)OCO3)c(C)cc1Br,"inconclusive [activator, partial curve]",–
CC(C)(C)c1ccc(OCCC(=O)OCC(=O)Nc2ccc(N3CCOCC3)cc2)cc1,"inconclusive [activator, partial curve]",–
COc1ccc(N2CCN(C(=O)c3cccn4c(=O)c5ccc(Cl)cc5nc34)CC2)cc1,inactive,–
